# Values joined by “and” are separate entries in the source; they are usually repeats but may differ in a detail not shown here. Identical values can stand only once. The shares of active, inactive and inconclusive entries below differ from those in the screen. Potencies of inconclusive entries are doubtful fits and often do not repeat. Some compounds were tested as several samples or in several runs, with calls that do not always agree. Active and inactive are the calls of the source. Calls follow the shape of the dose curve; as a rule, active = well fitted curve in the direction sought with a large enough effect in the repeat runs; inconclusive = weak or mixed curves; inactive = no such curve, though single readings can be large; an effect the other way counts as inactive or inconclusive.
# Test: Caspase-3/7 induction in CHO-K1 cells by small molecules, qHTS assay (AID 1346980); also: nearly all actives have a fitted effect of over 15% in size
# Details: CHO-K1 caspase-3/7 induction, Caspase-Glo luminescence, 17 h; series mostly up to 92.4 µM; caspase-3/7 activation: at the top concentration
# Procedure, shortened: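 Luminescent Caspase-Glo 3/7 read (30min, room temperature) quantified apoptosis induction. Cells were wild-type CHO-K1, treated with compound for 17hr at 37 C and 5% CO2.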
# Potency is read from the fitted curve at half-maximal effect; tags tell the direction and shape of the fitted curve.
row,SMILES,Potency
1,CN(C)c1ccc(C(=C2C=CC(=[N+](C)C)C=C2)c2ccc(N(C)C)cc2)cc1,active: 7.66 µM and active: 6.11 µM and active: 8.41 µM
2,COc1cccc2c1C(=O)c1c(O)c3c(c(O)c1C2=O)C[C@@](O)(C(=O)CO)C[C@@H]3O[C@H]1C[C@H](N)[C@H](O)[C@H](C)O1,inconclusive: 30.6 µM [activator]
3,CC1(C)CCC(C)(C)c2cc(C(=O)Nc3ccc(C(=O)O)cc3)ccc21,"inconclusive: 68.6 µM [activator, single point]"
4,O=C1NCCN1CCN1CCC(c2cn(-c3ccc(F)cc3)c3ccc(Cl)cc23)CC1,active: 26.6 µM
5,COC(=O)C1=C(C)NC(C)=C(C(=O)OCCCN2CCC(c3ccccc3)(c3ccccc3)CC2)C1c1cccc([N+](=O)[O-])c1 (stereo not drawn),"inconclusive: 33.5 µM [activator, single point]"
6,C[C@H](CCC(=O)O)[C@H]1CC[C@H]2[C@@H]3[C@H](O)C[C@@H]4C[C@H](O)CC[C@]4(C)[C@H]3CC[C@]12C,"inconclusive: 68.8 µM [activator, single point]"
7,Cc1cccc(C)c1NC(=O)CN1CCN(CCCC(c2ccc(F)cc2)c2ccc(F)cc2)CC1,"inconclusive: 33.5 µM [activator, single point]"
8,OCCN1CCN(CCCN2c3ccccc3Sc3ccc(C(F)(F)F)cc32)CC1,"inconclusive: 33.5 µM [activator, single point]"

# Test: Caspase-3/7 induction in HepG2 cells by small molecules, qHTS cell viability counter screen (AID 1346981); also: nearly all actives have a fitted effect of over 30% in size; as to activity change, negative = cytotoxicity: % is scaled to controls: 0 for no effect and ±100 for the full control effect
# Details: CellTiter-Fluor fluorescence, 17 h; series mostly up to 92.4 µM; activity change, negative = cytotoxicity: at the top concentration
# Procedure, shortened: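 The parent HepG2 line is plated at 2,000 cells per well and rested 5 hr before compound pinning from DMSO stocks. Following a 16-hr treatment at 37 C, a fluorogenic live-cell substrate (CellTiter-Fluor) reports viability after 1 hr.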
SMILES,Potency,"activity change, negative = cytotoxicity"
CNCC[C@H](Oc1cccc2ccccc12)c1cccs1,"inconclusive: 33.5 µM [cytotoxic, single point]",–
O=C(O)CCCCC1CCSS1 (stereo not drawn),"inconclusive: 47.9 µM [rising, partial curve] and inconclusive: 34.3 µM [rising, partial curve]",–
CCCCCCCOC(=O)CCC,–,inactive: 3.32%
COc1cccc2c1C(=O)c1c(O)c3c(c(O)c1C2=O)C[C@@](O)(C(=O)CO)C[C@@H]3O[C@H]1C[C@H](N)[C@H](O)[C@H](C)O1,active: 3.85 µM and active: 11.9 µM,–
O=C(CCCN1CCC(O)(c2ccc(Cl)cc2)CC1)c1ccc(F)cc1,active: 48.6 µM,–
CC1(C)CCC(C)(C)c2cc(C(=O)Nc3ccc(C(=O)O)cc3)ccc21,"inconclusive: 68.6 µM [cytotoxic, single point]",–
O=C1NCCN1CCN1CCC(c2cn(-c3ccc(F)cc3)c3ccc(Cl)cc23)CC1,active: 29.8 µM,–
Cc1ccc(NC(=O)c2ccc(CN3CCN(C)CC3)cc2)cc1Nc1nccc(-c2cccnc2)n1,"inconclusive: 29.8 µM [cytotoxic, single point]",–
O=C1C=CC(=O)N1,"inconclusive: 70.4 µM [cytotoxic, single point]",–
O=C(O)C1(C(=O)Nc2ccc(Cl)cc2Cl)CC1,–,inactive: -12.4%
COC(=O)C1=C(C)NC(C)=C(C(=O)OCCCN2CCC(c3ccccc3)(c3ccccc3)CC2)C1c1cccc([N+](=O)[O-])c1 (stereo not drawn),active: 29.8 µM,–
CCc1c(C(=O)NN2CCCCC2)nn(-c2ccc(Cl)cc2Cl)c1-c1ccc(Br)cc1,"inconclusive: 61.1 µM [cytotoxic, single point]",–
Cc1cccc2c1cc1ccc3cccc4ccc2c1c34,"inconclusive: 24.9 µM [rising, partial curve]",–
Cc1oc(-c2ccccc2)nc1CCC(=O)c1ccc(CC2SC(=O)NC2=O)cc1 (stereo not drawn),"inconclusive: 33.5 µM [cytotoxic, single point]",–
C[C@H](CCC(=O)O)[C@H]1CC[C@H]2[C@@H]3[C@H](O)C[C@@H]4C[C@H](O)CC[C@]4(C)[C@H]3CC[C@]12C,"inconclusive: 68.8 µM [cytotoxic, single point]",–
Nc1nc2ccccc2n1Cc1ccc(F)cc1,"inconclusive: 33.5 µM [cytotoxic, single point]",–
CN1CCN(C2Cc3ccccc3Sc3ccc(Cl)cc32)CC1 (stereo not drawn),"inconclusive: 23.7 µM [cytotoxic, partial curve]",–
N#CSc1ccc(N)c([N+](=O)[O-])c1,active: 54.8 µM,–
O=C(O)c1cc(N=Nc2ccc([N+](=O)[O-])cc2)ccc1O,active: 53.5 µM,–
CNCCCN1c2ccccc2CCc2ccccc21,"inconclusive: 26.6 µM [cytotoxic, single point]",–
